According to PubChem BioAssay (NCI):
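The compound was tested at five concentrations on cells cultured in 96-well plates, with a 48-hour exposure period. The concentration for 50% growth inhibition is given as GI50.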 Some entries of the source have several records that differ or are many. Only these are listed. The source may hold further records. For some of these results: A record mostly stands for its own series of concentrations, which the source does not state; a value can be the end of its range. A tag in brackets gives the origin of a value. A, B and so on number the origins entry by entry. For some of these results: Results that share an entry are repeated measurements across runs, samples, wells, individuals or studies.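 TGI marks complete inhibition of growth.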

Tests used:
Assay in all cases: growth of human tumour cells (NCI), 48 h
HCC-2998 colon = tested on: HCC-2998 colon
MOLT-4 leukemia = tested on: MOLT-4 leukemia
OVCAR-5 ovarian = tested on: OVCAR-5 ovarian
HL-60(TB) leukemia = tested on: HL-60(TB) leukemia
BT-549 breast = tested on: BT-549 breast
LOX IMVI melanoma = tested on: LOX IMVI melanoma
K-562 leukemia = tested on: K-562 leukemia
SK-OV-3 ovarian = tested on: SK-OV-3 ovarian
UO-31 renal = tested on: UO-31 renal
UACC-257 melanoma = tested on: UACC-257 melanoma
T-47D breast = tested on: T-47D breast
CCRF-CEM leukemia = tested on: CCRF-CEM leukemia
SN12C renal = tested on: SN12C renal
DU-145 prostate = tested on: DU-145 prostate
IGROV1 ovarian = tested on: IGROV1 ovarian
M14 melanoma = tested on: M14 melanoma
SR leukemia = tested on: SR leukemia
SNB-19 CNS = tested on: SNB-19 CNS
MDA-MB-231 breast = tested on: MDA-MB-231 breast
A498 renal = tested on: A498 renal
HOP-92 NSCLC = tested on: HOP-92 NSCLC
CAKI-1 renal = tested on: CAKI-1 renal
SW-620 colon = tested on: SW-620 colon
A549 NSCLC = tested on: A549 NSCLC
LXFL 529 NSCLC = tested on: LXFL 529 NSCLC
RXF-631 renal = tested on: RXF-631 renal
NCI-H226 lung = tested on: NCI-H226 lung
DLD-1 colon = tested on: DLD-1 colon
SF-539 CNS = tested on: SF-539 CNS
M19-MEL melanoma = tested on: M19-MEL melanoma
DMS 273 small cell lung = tested on: DMS 273 small cell lung
SNB-78 CNS = tested on: SNB-78 CNS
KM20L2 colon = tested on: KM20L2 colon

## CCN(CC)CCNC(=O)c1c(C)[nH]c(/C=C2\C(=O)Nc3ccc(F)cc32)c1C
HCC-2998 colon
  GI50: 2.97 µM [sample A, 1 test] and 684 nM [sample A, mean of 4 tests] and > 10 µM [sample B, 1 test]

## CCC1=C[C@@H]2CN(C1)Cc1c([nH]c3ccccc13)[C@@](C(=O)OC)(c1cc3c(cc1OC)N(C)[C@H]1[C@@](O)(C(=O)OC)[C@H](OC(C)=O)[C@]4(CC)[C@@H]5C[C@@H]5CN5CC[C@]31[C@@H]54)C2
MOLT-4 leukemia
  TGI: 5.04 µM and > 100 µM
OVCAR-5 ovarian
  GI50: < 5 nM and 397 nM
HL-60(TB) leukemia
  TGI: < 5 nM and 11.5 µM
BT-549 breast
  GI50: 42 nM and 981 nM
LOX IMVI melanoma
  TGI: 71.8 nM and 12.5 µM
K-562 leukemia
  TGI: 1.32 µM and 13.9 µM
HCC-2998 colon
  TGI: 34.2 nM and 7.24 µM
SK-OV-3 ovarian
  TGI: 63.8 nM and 6.58 µM
UO-31 renal
  GI50: 35.1 nM and 1.21 µM
UACC-257 melanoma
  GI50: < 5 nM and 232 nM
T-47D breast
  GI50: < 5 nM and 744 nM
CCRF-CEM leukemia
  TGI: 5.58 µM and > 100 µM
SN12C renal
  GI50: < 5 nM and 56.1 nM
DU-145 prostate
  TGI: < 5 nM and 334 nM
IGROV1 ovarian
  GI50: < 5 nM and 104 nM
M14 melanoma
  TGI: 18.8 nM and 3.08 µM
SR leukemia
  TGI: 663 nM and 47.1 µM
SNB-19 CNS
  GI50: 5.35 nM and 4.7 µM
MDA-MB-231 breast
  TGI: 72.9 nM and 1.79 µM

## Cc1nc(Nc2n[nH]c3c2CN(C(=O)N[C@H](CN(C)C)c2ccccc2)C3(C)C)c2sccc2n1
SR leukemia
  TGI: 2.2 µM [sample A, 1 test] and > 46.4 µM [sample B, mean of 2 tests]
A498 renal
  GI50: 112 nM [sample A, mean of 2 tests] and 1.28 µM [sample B, mean of 2 tests]
HOP-92 NSCLC
  GI50: 166 nM [sample A, mean of 2 tests] and < 10 nM [sample B, mean of 2 tests]
CAKI-1 renal
  GI50: 111 nM [sample A, mean of 2 tests] and 1.69 µM [sample B, mean of 2 tests]

## CC[C@H]1CN2CCc3cc(OC)c(OC)cc3[C@@H]2C[C@@H]1C[C@H]1NCCc2cc(OC)c(OC)cc21
MOLT-4 leukemia
  TGI: 376 nM and 14.3 nM
HL-60(TB) leukemia
  TGI: 44.6 nM and 18.9 µM
SW-620 colon
  TGI: 118 nM and 1.39 µM
A549 NSCLC
  TGI: 97 nM and 1.16 µM
LXFL 529 NSCLC
  TGI: 133 nM and 2.71 µM
RXF-631 renal
  TGI: 164 nM and 1.79 µM

## CC1(C)CC[C@H](C2=CC(=O)c3c(O)ccc(O)c3C2=O)O1
MOLT-4 leukemia
  TGI: > 22.1 µM [sample A, mean of 2 tests] and 406 nM [sample B, 1 test]
NCI-H226 lung
  TGI: 17.4 µM [sample A, mean of 4 tests] and 3.54 µM [sample B, 1 test] and 1.21 µM [sample B, mean of 2 tests]
DLD-1 colon
  GI50: 1.9 µM [sample A, mean of 2 tests] and 176 nM [sample B, 1 test] and 86.1 nM [sample B, mean of 2 tests]
  TGI: 4.1 µM [sample A, mean of 2 tests] and 373 nM [sample B, 1 test] and 250 nM [sample B, mean of 2 tests]
K-562 leukemia
  GI50: 3.74 µM [sample A, mean of 3 tests] and 172 nM [sample B, 1 test] and 270 nM [sample B, mean of 2 tests]
  TGI: > 44.4 µM [sample A, mean of 3 tests] and 415 nM [sample B, 1 test]
HCC-2998 colon
  TGI: 22.4 µM [sample A, mean of 4 tests] and 3.55 µM [sample B, 1 test] and 1.42 µM [sample B, mean of 3 tests]
SF-539 CNS
  TGI: 9.73 µM [sample A, mean of 4 tests] and 3.41 µM [sample B, 1 test] and 956 nM [sample B, mean of 2 tests]
LXFL 529 NSCLC
  GI50: 1.56 µM [sample A, mean of 2 tests] and 389 nM [sample B, 1 test] and 90.3 nM [sample B, mean of 2 tests]
  TGI: 3.04 µM [sample A, mean of 2 tests] and 1.49 µM [sample B, 1 test] and 230 nM [sample B, mean of 2 tests]
M19-MEL melanoma
  GI50: 2.47 µM [sample A, mean of 2 tests] and 200 nM [sample B, 1 test] and 177 nM [sample B, mean of 2 tests]
  TGI: 8.8 µM [sample A, mean of 2 tests] and 408 nM [sample B, 1 test] and 363 nM [sample B, mean of 2 tests]
CCRF-CEM leukemia
  TGI: 13.5 µM [sample A, mean of 3 tests] and 648 nM [sample B, mean of 3 tests]
SN12C renal
  TGI: 7.31 µM [sample A, mean of 3 tests] and 2.9 µM [sample B, 1 test] and 706 nM [sample B, mean of 3 tests]
SNB-19 CNS
  TGI: 29.5 µM [sample A, mean of 3 tests] and 2.19 µM [sample B, mean of 3 tests]
DMS 273 small cell lung
  TGI: 20 µM [sample A, mean of 2 tests] and 2.89 µM [sample B, 1 test] and 1.5 µM [sample B, mean of 2 tests]
SNB-78 CNS
  TGI: 46.2 µM [sample A, mean of 2 tests] and 2.87 µM, 4.91 µM [sample B, 1 test]
KM20L2 colon
  GI50: 9.51 µM [sample A, mean of 2 tests] and 2.31 µM [sample B, 1 test] and 770 nM [sample B, mean of 2 tests]
  TGI: 28.7 µM [sample A, mean of 2 tests] and 5.77 µM [sample B, 1 test] and 2.03 µM [sample B, mean of 2 tests]
